Assay results as given in the supplement of paper PMC13380429.

What was measured:
Conditions in all cases: 72 h
HepG2 [1] = experiment: drug sensitivity score (DSS) for viability; higher = more toxic; extreme values may be limits of the assay
Vero E6 [2] = experiment: as above
Caco-2 [3] = experiment: as above
U2OS [4] = experiment: as above
HepG2 [5] = experiment: cell viability relative to DMSO; higher = less toxic
Vero E6 [6] = experiment: as above
Caco-2 [7] = experiment: as above
U2OS [8] = experiment: as above
HepG2 [9] = experiment: relative viability EC50 (midpoint between 100% and the lowest measured viability); higher = less toxic
Vero E6 [10] = experiment: as above

COc1cc(N2CCN(C(C)=O)CC2)ccc1Nc1ncc(Cl)c(Nc2ccc(N3CCN(C(C)=O)CC3)cc2OC)n1 [KRCA-0008]
drug sensitivity score (HepG2 [1]): 5.8 | drug sensitivity score (Vero E6 [2]): 0 | drug sensitivity score (Caco-2 [3]): 3.2 | drug sensitivity score (U2OS [4]): 2.4 | cell viability (HepG2 [5]; 1 nM): 102% | cell viability (HepG2 [5]; 10 nM): 87.3% | cell viability (HepG2 [5]; 100 nM): 108% | cell viability (HepG2 [5]; 1000 nM): 84.6% | cell viability (HepG2 [5]; 10000 nM): 37.5% | cell viability (Vero E6 [6]; 1 nM): 102% | cell viability (Vero E6 [6]; 10 nM): 101% | cell viability (Vero E6 [6]; 100 nM): 98.3% | cell viability (Vero E6 [6]; 1000 nM): 103% | cell viability (Vero E6 [6]; 10000 nM): 87.5% | cell viability (Caco-2 [7]; 1 nM): 99.3% | cell viability (Caco-2 [7]; 10 nM): 94.2% | cell viability (Caco-2 [7]; 100 nM): 86.4% | cell viability (Caco-2 [7]; 1000 nM): 94.3% | cell viability (Caco-2 [7]; 10000 nM): 56.1% | cell viability (U2OS [8]; 1 nM): 93.7% | cell viability (U2OS [8]; 10 nM): 95.7% | cell viability (U2OS [8]; 100 nM): 95.8% | cell viability (U2OS [8]; 1000 nM): 96.9% | cell viability (U2OS [8]; 10000 nM): 61.4% | relative viability EC50 (HepG2 [9]): 1570 nM | relative viability EC50 (Vero E6 [10]): > 10000 nM
